From the supplement of paper PMC4967469
By IC50 is meant the dose at which the fit gives 50% viability; a fit beyond the top or the lowest dose is shown as a bound at that dose. For AUC the same curve is integrated over the 256-fold range of doses and scaled to a fraction: 1 means no effect, lower means more sensitive. For part of these data: An inferred top dose was derived from the fitted curves, not read from the paper. For part of these data: Where an entry number is given, a second screen of the drug exists; the two often differ.

Experiments:
Experiment in all cases: Viability of human cancer cell lines after 72 h of drug (GDSC screen)
Thapsigargin = compound: C/C=C(/C)C(=O)O[C@H]1C(C)=C2[C@H]([C@@H]1OC(=O)CCCCCCC)[C@@](C)(OC(C)=O)C[C@H](OC(=O)CCC)[C@@]1(O)[C@H]2OC(=O)[C@@]1(C)O [Thapsigargin]; conditions: top dose 0.512 µM; top dose inferred
Method: (§1)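 Human cancer cell lines in 384-well plates, medium with 10% serum, drug for 72 h over a 256-fold dose range (nine 2-fold or five 4-fold steps up to the top dose). Adherent lines were fixed and stained with the nucleic acid dye Syto60, suspension lines read with resazurin; signal relative to control wells, capped at 0 and 100%. One two-parameter sigmoid per drug and line, fitted in a mixed model over all curves with the slope shared within a line.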

Zibotentan = compound: COc1nc(C)cnc1NS(=O)(=O)c1cccnc1-c1ccc(-c2nnco2)cc1 [Zibotentan]; conditions: top dose 20 µM; top dose inferred
Method: as §1

CP466722 = compound: COc1cc2ncnc(-n3nc(-c4ccccn4)nc3N)c2cc1OC [CP466722]; conditions: top dose 16 µM; top dose inferred
Method: as §1

CMK = compound: Cc1ccc(-c2c(C(=O)CCl)n(CCCO)c3ncnc(N)c23)cc1 [CMK]; conditions: top dose 4 µM; top dose inferred
Method: as §1

CHIR-99021 = compound: Cc1cnc(-c2cnc(NCCNc3ccc(C#N)cn3)nc2-c2ccc(Cl)cc2Cl)[nH]1 [CHIR-99021]
Method: as §1

GSK269962A = compound: CCn1c(-c2nonc2N)nc2cnc(Oc3cccc(NC(=O)c4ccc(OCCN5CCOCC5)cc4)c3)cc21 [GSK269962A]; conditions: top dose inferred
Method: as §1

QL-X-138 = compound: C=CC(=O)Nc1cc(-n2c(=O)ccc3cnc4ccc(-c5cn[nH]c5)cc4c32)ccc1C [QL-X-138]; conditions: top dose 10.24 µM; top dose inferred
Method: as §1

ABT-869 = compound: Cc1ccc(F)c(NC(=O)Nc2ccc(-c3cccc4[nH]nc(N)c34)cc2)c1 [ABT-869]; conditions: top dose 1.024 µM; top dose inferred
Method: as §1

MPS-1-IN-1 = compound: COc1cc(N2CCC(O)CC2)ccc1Nc1cc(Nc2ccccc2S(=O)(=O)C(C)C)c2cc[nH]c2n1 [MPS-1-IN-1]; conditions: top dose 20 µM; top dose inferred
Method: as §1

KU-55933 = compound: O=c1cc(-c2cccc3c2Sc2ccccc2S3)oc(N2CCOCC2)c1 [KU-55933]; conditions: top dose 10 µM
Method: as §1

Cytarabine = compound: Nc1ccn([C@@H]2O[C@H](CO)[C@@H](O)[C@@H]2O)c(=O)n1 [Cytarabine]; conditions: top dose 2 µM
Method: as §1

ABT-888 = compound: C[C@]1(c2nc3c(C(N)=O)cccc3[nH]2)CCCN1 [ABT-888]; conditions: top dose 5 µM; top dose inferred
Method: as §1

(5Z)-7-Oxozeaenol = compound: COc1cc(O)c2c(c1)/C=C/C[C@H](O)[C@H](O)C(=O)/C=C\C[C@H](C)OC2=O [(5Z)-7-Oxozeaenol]; conditions: top dose 10 µM; top dose inferred
Method: as §1

[1] = top dose 2.56 µM, screen: GDSC drug entry 154
[2] = top dose 10 µM, screen: GDSC drug entry 1241, top dose inferred
[3] = top dose 2.5 µM, screen: GDSC drug entry 127
[4] = top dose 5 µM, screen: GDSC drug entry 1192

Cell Line | AUC (Thapsigargin) | IC50 (Thapsigargin) [nM] | AUC (Zibotentan) | IC50 (Zibotentan) [nM] | AUC (CP466722) | IC50 (CP466722) [nM] | AUC (CMK) | IC50 (CMK) [nM] | AUC (CHIR-99021; [1]) | IC50 (CHIR-99021; [1]) [nM] | AUC (CHIR-99021; [2]) | IC50 (CHIR-99021; [2]) [nM] | AUC (GSK269962A; [3]) | IC50 (GSK269962A; [3]) [nM] | AUC (GSK269962A; [4]) | IC50 (GSK269962A; [4]) [nM] | AUC (QL-X-138) | IC50 (QL-X-138) [nM] | AUC (ABT-869) | IC50 (ABT-869) [nM] | AUC (MPS-1-IN-1) | IC50 (MPS-1-IN-1) [nM] | AUC (KU-55933) | IC50 (KU-55933) [nM] | AUC (Cytarabine) | IC50 (Cytarabine) [nM] | AUC (ABT-888) | IC50 (ABT-888) [nM] | AUC ((5Z)-7-Oxozeaenol) | IC50 ((5Z)-7-Oxozeaenol) [nM]
RPMI-8866 (chronic myeloid leukaemia, suspension) | 0.836 | 306 | 0.981 | > 20000 | 0.842 | 10100 | 0.92 | > 4000 | 0.987 | > 2560 | 0.97 | > 10000 | 0.981 | > 2500 | 0.868 | 4020 | 0.654 | 1650 | 0.988 | > 1020 | 0.893 | > 20000 | 0.816 | 5040 | 0.817 | 1020 | 0.881 | 4590 | 0.581 | 1020
RXF393 (kidney, adherent) | 0.718 | 171 | 0.975 | > 20000 | 0.821 | 14400 | 0.858 | > 4000 | 0.822 | 2330 | 0.859 | > 10000 | 0.663 | 534 | 0.726 | 1800 | 0.619 | 1550 | 0.967 | > 1020 | 0.832 | > 20000 | 0.944 | > 10000 | 0.758 | 959 | 0.958 | > 5000 | 0.664 | 2140
Raji (Burkitt lymphoma, suspension) | 0.552 | 44 | 0.987 | > 20000 | 0.922 | > 16000 | 0.901 | > 4000 | 0.99 | > 2560 | 0.989 | > 10000 | 0.988 | > 2500 | 0.891 | > 5000 | 0.783 | 4010 | 0.986 | > 1020 | 0.927 | > 20000 | 0.96 | > 10000 | 0.915 | > 2000 | 0.989 | > 5000 | 0.751 | 3100
Ramos-2G6-4C10 (Burkitt lymphoma, suspension) | 0.152 | 3.41 | 0.989 | > 20000 | 0.672 | 2790 | 0.896 | 3640 | 0.975 | > 2560 | 0.967 | > 10000 | 0.796 | 982 | 0.311 | 101 | 0.635 | 1420 | 0.981 | > 1020 | 0.777 | 6840 | 0.852 | 6040 | 0.861 | 1310 | 0.953 | > 5000 | 0.781 | 3530
SBC-1 (small cell lung carcinoma, suspension) | 0.575 | 50.8 | 0.979 | > 20000 | 0.884 | > 16000 | 0.987 | > 4000 | 0.971 | > 2560 | 0.988 | > 10000 | 0.978 | > 2500 | 0.652 | 810 | 0.627 | 1410 | 0.983 | > 1020 | 0.981 | > 20000 | 0.988 | > 10000 | 0.988 | > 2000 | 0.989 | > 5000 | 0.714 | 2450
SCH (stomach, adherent) | 0.988 | > 512 | 0.988 | > 20000 | 0.975 | > 16000 | 0.969 | > 4000 | 0.974 | > 2560 | 0.987 | > 10000 | 0.977 | > 2500 | 0.967 | > 5000 | 0.936 | > 10200 | 0.985 | > 1020 | 0.988 | > 20000 | 0.977 | > 10000 | 0.879 | > 2000 | 0.986 | > 5000 | 0.795 | 5050
SF539 (glioma, adherent) | 0.328 | 11.2 | 0.981 | > 20000 | 0.896 | > 16000 | 0.792 | 1610 | 0.968 | > 2560 | 0.947 | > 10000 | 0.802 | 1090 | 0.937 | > 5000 | 0.594 | 1130 | 0.96 | > 1020 | 0.948 | > 20000 | 0.974 | > 10000 | 0.753 | 607 | 0.989 | > 5000 | 0.705 | 2210
SH-4 (melanoma, adherent) | 0.283 | 5.46 | 0.971 | > 20000 | 0.825 | > 16000 | 0.878 | > 4000 | 0.975 | > 2560 | 0.97 | > 10000 | 0.892 | > 2500 | 0.668 | 1190 | 0.825 | > 10200 | 0.96 | > 1020 | 0.945 | > 20000 | 0.973 | > 10000 | 0.91 | > 2000 | 0.971 | > 5000 | 0.119 | < 39.1
